Test results reported in PubChem BioAssay AID493208 (National Center for Advancing Translational Sciences (NCATS), 2011).
Among all 44,000 compounds or so, about 340 (0.77%) were called active. Inconclusive results (about 5%) are left out. The call rests on the fitted dose curve; in most records, active means well fitted inhibition curve with a large enough effect; inconclusive means small, poorly fitted or top-dose-only effect; inactive means flat fitted curve, though single readings scatter. This is one part of the list.

Test: Acumen qHTS Assay for Inhibitors of the mTORC1 Signaling Pathway in MEF (Tsc2-/-, p53-/-) Cells: Sytravon; further: nearly all actives have a fitted effect of over 50% in size;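 on activity change, negative = inhibition: plate controls were DMSO for no effect and rapamycin for full effect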
Settings: phospho-rpS6 immunofluorescence/PI, 24 h; series mostly up to 38.3 µM; activity change, negative = inhibition: at the top concentration
Method in brief: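 Read-out: phospho-S6 Alexa-488 intensity over PI intensity per well, scored as % active cells using thresholds from rapamycin (7.5 nM) and DMSO controls. Tsc2-/-, p53-/- MEFs exposed to compound for 24 h; PI cell count recorded as viability.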
Potency means the concentration at half of the fitted maximal effect.

SMILES	activity change, negative = inhibition	Potency
COCCCNC(=O)c1sc2nc(C)c(C(=O)Nc3ccc(C)cc3C)c(-c3ccc(Br)cc3)c2c1N	inactive: -5.56%	–
COc1ccc(-c2noc(CN(C(=O)Cc3ccc(C)cc3)C(C)C)n2)cc1	inactive: 1.85%	–
COc1cccc(CNC(=O)C2CCN(C(=O)c3sccc3-n3cccc3)CC2)c1	inactive: -0.135%	–
O=C(NCCCO)C(=O)Nc1c2c(nn1-c1ccccc1)CSC2	inactive: -1.8%	–
CCC(CC)C(=O)NCc1nc2cccnc2n1Cc1ccc(F)cc1	inactive: -7.87%	–
CCCN(CCC)C(=O)c1cn(CC)c2ccc(S(=O)(=O)N3CCCCC3)cc2c1=O	inactive: 1.12%	–
O=C(CN1C(=O)C2(SCC(=O)N2c2ccccc2)c2ccccc21)NCCc1ccccc1 (configuration not stated)	inactive: -1.98%	–
Cc1cn2c(=O)cc(COC(=O)c3ccccc3F)nc2s1	inactive: -10.6%	–
CCc1ccc(NC(=O)CSc2nc3c(sc4ccccc43)c(=O)n2CCN(CC)CC)cc1	inactive: 0.457%	–
Cc1ccc(CNS(=O)(=O)c2cc3c(cc2C)N(C)CCO3)cc1	inactive: -7.62%	–
COc1cc(C)ccc1OCCSc1nc2ccc(NC(=O)c3cccs3)cc2s1	inactive: -4.58%	–
Cc1ccc(C(=O)Nc2ccccc2C(=O)OCc2cc(=O)n3nc(C4CC4)sc3n2)cc1	inactive: 4.46%	–
Cc1ccc(S(=O)(=O)C(CNC(=O)COc2ccc(Cl)cc2)c2ccco2)cc1 (configuration not stated)	inactive: 0.232%	–
Cc1ccc(CNC(=O)c2cccc(NC(=O)N3CCSc4ncccc43)c2)cc1	inactive: 1.66%	–
CC(=O)Nc1cccc(NC(=O)CSc2nccn2Cc2ccco2)c1	inactive: -7.5%	–
Cc1cc(C)cc(NC(=O)CCCc2nnc3n(CC(C)C)c(=O)c4sccc4n23)c1	inactive: 0.377%	–
Cc1ccc(NC(=O)c2ccc3c(c2)NC(=O)c2ccccc2S3)cc1	inactive: -8.57%	–
CCN(CC)CCCNC(=O)C(=O)Nc1ccc2nc3n(c(=O)c2c1)CCCCC3	inactive: -7.9%	–
COc1ccc(/C=C/C(=O)Nc2ccc(Cl)cc2Cl)cc1	inactive: -9.69%	–
Cc1ccc(Cn2ccnc2SCC(=O)Nc2ccc3c(c2)OCCO3)cc1	inactive: -7.58%	–
Cc1ccc(NC(=O)Cn2cc(C(=O)c3ccco3)c3ccccc32)c(C)c1	inactive: 2.8%	–
Cc1ccccc1CNC(=O)c1cc2cccc3c2n1CC(C)S3 (configuration not stated)	inactive: 1.54%	–
O=C(Nc1cccc(Cl)c1)c1cc(S(=O)(=O)N2CCCc3ccccc32)ccc1F	inactive: -12.8%	–
CCOc1cc(C2CC(=O)Nc3c2c(=O)nc(SCc2cccc(Cl)c2)n3C)ccc1O (configuration not stated)	inactive: 0%	–
COc1ccc(-c2cc(C(=O)Nc3sc4c(c3C(N)=O)CCC(C)C4)no2)cc1 (configuration not stated)	inactive: 16.3%	–

SMILES	activity change, negative = inhibition	Potency
CCOc1ccc(OCC)c(-n2cnnn2)c1	inactive: -0.787%	–
Fc1ccccc1N1CCN(c2ncnc3onc(-c4cccc(Cl)c4)c23)CC1	inactive: -6.37%	–
Cc1c(NC(=O)Nc2ccc(Cl)c(C(F)(F)F)c2)c(=O)n(-c2ccccc2)n1C	inactive: 4.73%	–
CC(=O)Nc1ccc(NC(=O)c2nc(SCc3ccccc3C)ncc2Cl)cc1	inactive: -6.07%	–
COc1cccc(OCc2cc(=O)n3cc(C)sc3n2)c1	inactive: -8.87%	–
CCCCNC(=O)c1cc(-c2ccc(Cl)c(Cl)c2)on1	inactive: -13%	–
Cn1c(=O)c2c(-c3ccccc3Br)n(Cc3ccccc3)cc2n(C)c1=O	inactive: -1.3%	–
NS(=O)(=O)c1ccc(NC(=O)CN2CCN(c3ccc(F)cc3)CC2)cc1	inactive: 6.65%	–
Cc1cccn2c(=O)cc(COc3ccc(NC(=O)C(C)Oc4ccccc4)cc3)nc12 (configuration not stated)	inactive: -0.348%	–
COc1ccc(-c2cc3c(=O)n(CC(=O)Nc4cc(C)ccc4C)ccn3n2)cc1	inactive: 0%	–
COc1ccc(-n2c(SCC(=O)NC3CCCCC3)nc3c([nH]c4ccccc43)c2=O)cc1	inactive: -4.56%	–
Cc1ccc(Cl)cc1-n1ncc2c(NCCC3=CCCCC3)ncnc21	inactive: -20.5%	–
CCOc1ccc(NC(=O)CC2C(=O)N(c3cccc(C)c3)C(=O)N2CCC2=CCCCC2)cc1 (configuration not stated)	inactive: 4.13%	–
CCOc1ccc(NC(=O)CCc2c(C)nc3c(c(C)nn3-c3ccccc3)c2C)cc1	inactive: 1.48%	–
Cc1ccc(S(=O)(=O)n2nc(C)c(S(=O)(=O)N3CCCCC3)c2C)cc1	inactive: -10.7%	–
CCc1ccc(CN(Cc2ccco2)C(=O)c2ccc(C)cc2)cc1	inactive: 4.21%	–
CC(=O)Nc1ccccc1-c1nc2ccccc2n(C(C)C(=O)Nc2cccc(C)c2C)c1=O (configuration not stated)	inactive: -0.917%	–
Cc1ccc(-n2c(=O)[nH]c3sc4c(c3c2=O)CCCC4)cc1	inactive: 0%	–
O=S(=O)(c1ccc(Cl)cc1)c1nnn2c1nc(NCc1ccccc1)c1sccc12	inactive: -10.7%	–
CC(=O)N(Cc1cccnc1)c1nc2cc(C)cc(C)c2s1	inactive: -5%	–
O=C(Nc1ccccc1)N(Cc1cccs1)c1ccc(Cl)cc1	inactive: 1.73%	–
COc1cc(OC)c(NC(=O)CN(C)S(=O)(=O)c2ccc3c(c2)CCCC(=O)N3)cc1Cl	inactive: -14.9%	–
CCc1ccc(C(=O)c2cn(CC(=O)Nc3cccc(C)c3C)c3nc(C)ccc3c2=O)cc1	inactive: -18.4%	–
CCCCN(CC)C(=O)C1CCC(CNS(=O)(=O)c2cccc3nsnc23)CC1 (configuration not stated)	inactive: 1.51%	–
COc1ccc(Cl)cc1NC(=O)CN1C(=O)CSc2ccc(S(=O)(=O)N3CCCC3)cc21	inactive: -15.2%	–

SMILES	activity change, negative = inhibition	Potency
COc1ccccc1C(=O)N(Cc1ccco1)Cc1ccccc1F	inactive: -4.88%	–
Cc1ccc(CNC(=O)c2cc(Sc3ccc(F)cc3F)nc3ccccc23)cc1	inactive: 3.7%	–
Cc1cccc(NC(=O)CSc2nc(C)c(Cc3ccccc3)c(=O)[nH]2)c1C	inactive: 2.61%	–
CCC(C(=O)N(C)Cc1ccccc1)n1nc(C)c2sc3ccccc3c2c1=O (configuration not stated)	inactive: -3.74%	–
COc1ccc(CCNC(=O)C2=C(C)C(=O)OC23CCCCC3)c(OC)c1	inactive: 5.24%	–
COc1ccc(CNC(=O)CCc2c(C)nn(-c3ccc(N4CCOCC4)nn3)c2C)cc1	inactive: -5.05%	–
CC(=O)N1CCCC1c1nc2ccccc2n1Cc1cc(C)ccc1C (configuration not stated)	inactive: 1.55%	–
CCOC(=O)N1CCN(S(=O)(=O)N2CCCC(C(=O)NCc3ccccc3OC)C2)CC1 (configuration not stated)	inactive: 3.89%	–
CCOC(=O)c1ccc(CN(Cc2ccc(F)cc2)S(=O)(=O)c2cc(C(=O)Nc3ccccc3CC)ccc2F)cc1	inactive: -14.8%	–
COc1ccc(NC(=O)C2CCCN(S(=O)(=O)c3ccc4[nH]c(=O)ccc4c3)C2)cc1OC (configuration not stated)	inactive: -3.73%	–
Cc1cccc(N2CCN(C(=O)CCCn3ncn4c(cc5occc54)c3=O)CC2)c1C	inactive: -10.2%	–
Cn1c(=O)n(C)c2cc(N3CCOCC3)c(NS(=O)(=O)c3ccc(Br)cc3)cc21	inactive: 6.34%	–
CCOc1cc(CNCCSc2nnnn2C)cc(Cl)c1OCc1ccc(Cl)cc1	–	active: 16.5 µM
O=C(NCC(c1cccnc1)N1CCc2ccccc2C1)C(=O)Nc1cccc(Cl)c1 (configuration not stated)	inactive: 0.836%	–
COc1ccc(-c2cc(C(=O)NCCc3ccccc3)c3c(-c4ccccc4)[nH]nc3n2)cc1	inactive: -9.98%	–
O=C(Cc1ccc(F)cc1)Nc1cccc(-c2nc3cccnc3s2)c1	inactive: -8.05%	–
Cc1ccc(CCNS(=O)(=O)c2ccc3c(c2)CCN3C(=O)CCC(=O)O)cc1	inactive: 2.79%	–
CCc1ccc(NC(=O)CCc2c(C)n(C)c3cc(-c4ccccc4C)nn3c2=O)cc1	inactive: -2.17%	–
CC(=O)N1CCc2c(sc3c2c(=O)n(-c2ccccc2)c(=O)n3Cc2cccc(C(F)(F)F)c2)C1	inactive: -2.83%	–
Cc1ccc(/C=C/c2nc3ccccc3n2S(=O)(=O)c2ccc(Br)cc2)cc1	inactive: 0.547%	–
Cc1ccccc1C(=O)N1CCCCC1CCN1CCCCC1 (configuration not stated)	inactive: -3.74%	–
COc1ccc(N2CCN(C(=O)CCc3c(C)nc4cc(-c5cccc(F)c5)nn4c3C)CC2)cc1	inactive: -10.6%	–
COc1cccc(N=C2SC(C(=O)Nc3cccc(Cl)c3)CC(=O)N2C)c1 (configuration not stated)	inactive: -13.7%	–
CCc1nn(CC(=O)NCCCN2CCN(C)CC2)c(=O)c2cc3occc3n12	inactive: -7.12%	–
CSc1ncc(C(=O)N2CCN(c3ccc(Cl)cc3)CC2)c(C)n1	inactive: 0.299%	–

SMILES	activity change, negative = inhibition	Potency
COc1ccc(C(=O)c2c(N)c(-c3nc(-c4ccccc4)cs3)c3ccccn23)cc1	inactive: -2.74%	–
COC(=O)c1c(NC(=O)COc2ccc(Cl)cc2C)sc2c1CCCCC2	inactive: 5.41%	–
COc1ccc(OC)c(NC(=O)CSC2=Nc3ccccc3C3=NC(CCC(=O)NC4CCCCC4)C(=O)N23)c1 (configuration not stated)	inactive: -0.141%	–
CSc1cccc(NC(=O)CC(c2ccc(F)cc2)N2Cc3ccccc3C2=O)c1 (configuration not stated)	inactive: -7.93%	–
COc1ccc(C)cc1NC(=O)c1oc2ccc(S(=O)(=O)N3CCOCC3)cc2c1C	inactive: -2.54%	–
Cc1nc2nc(C)c(CCC(=O)NCc3cccc(Cl)c3)c(C)n2n1	inactive: -10.2%	–
O=C(Cn1c(=O)n(Cc2ccco2)c(=O)c2sc3ccccc3c21)Nc1ccccc1C(F)(F)F	inactive: 1.6%	–
CCOc1ccccc1NC(=O)c1ccc(C(=O)Nc2ccccc2OCC)cc1	inactive: 2.06%	–
Cc1ccc(-n2nc(C)c3c(C)c(CCC(=O)NCc4ccccc4Cl)c(C)nc32)cc1	inactive: -5.98%	–
CC(=O)NCCNC(=O)c1ccc2c(=O)n(CCc3ccccc3)c(=O)[nH]c2c1	inactive: 5.17%	–
COc1ccc(C2=C(C(C)=O)Sc3nnc(-c4ccccc4)n3N2C(C)=O)cc1	inactive: -0.674%	–
Fc1ccc(Cc2cn3cc(-c4ccc(F)cc4)nc3s2)cc1	inactive: -11.3%	–
COc1cc(NC(=O)c2cc3cc4cc(OC)ccc4nc3o2)cc(OC)c1	inactive: -0.534%	–
CCOc1cc(C2NC(=O)c3c(sc4c3CCN(C)C4)N2)ccc1OC(=O)c1ccc(F)cc1 (configuration not stated)	inactive: 2.55%	–
COc1cc(C2CC(=O)N(CC(=O)Nc3ccccc3F)c3ccccc3S2)cc(OC)c1OC (configuration not stated)	inactive: -2.44%	–
CCC(C(=O)NCCc1ccc(SC)cc1)n1nc(C)c2c(C)n(-c3ccc(C)cc3)nc2c1=O (configuration not stated)	inactive: -7.51%	–
Cc1ccc(CCNC(=O)c2ccc(CSc3nc4ccncc4n3Cc3ccc(F)cc3)cc2)cc1	inactive: 0.0387%	–
Cc1ccc(-n2nc(CO)c(C(=O)NC(C)c3ccccc3)n2)cc1C (configuration not stated)	inactive: -5.36%	–
COC(=O)c1sc2ccccc2c1S(=O)(=O)N1CCN(c2ccc(C(C)=O)cc2)CC1	inactive: -16.1%	–
O=C(Nc1ccc(F)cc1F)c1cc(-c2ccc3c(c2)OCO3)on1	inactive: -10.3%	–
COC(=O)c1ccccc1NC(=O)CCc1c(C)nc2cc(-c3ccc(Cl)cc3)nn2c1C	inactive: -6.4%	–
CC(=O)c1cc(-c2ccc(F)cc2)n(CCC(=O)NC2CCCCC2)c1C	inactive: -0.818%	–
